Experimental findings from the supplement of paper PMC4604168 (melanoma cell lines) are described below.

Test systems include WM115; WM1716; WM1745; WM3526; WM3619; WM451Lu.
Common to all, as to test: cell count relative to DMSO control; melanoma cells; higher = more viable cells
What all share (conditions): library dose: low library concentration; 72 h

This is one part of the list. Single values are uncertain, as repeats are few or missing.
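Note: cell number obtained by counting DAPI-stained nuclei in high-throughput microscope images with image analysis software, screen run in 1,536-well plates.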

As to `Cn1cnc2c(F)c(Nc3ccc(Br)cc3Cl)c(C(=O)NOCCO)cc21` [selumetinib] + COc1ccc(COc2ccc(Cc3cnc(N)nc3N)cc2OC)cc1 [GW2580] (first compound 0.015 µM, partner dose 1 µM), the cell count is 88.4% in the experiment with WM115; 123% in the experiment with WM1716; 101% in the experiment on WM1745; 88.7% in the experiment on WM3526; 89% in the experiment with WM3619; 112% in the experiment with WM451Lu.
Regarding `COc1cc([C@@H]2c3cc4c(cc3[C@@H](O[C@@H]3O[C@@H]5CO[C@@H](C)O[C@H]5[C@H](O)[C@H]3O)[C@H]3COC(=O)[C@H]23)OCO4)cc(OC)c1O` [etoposide] + Cc1ccc(Nc2nccc(N(C)c3ccc4c(C)n(C)nc4c3)n2)cc1S(N)(=O)=O [Pazopanib] (first compound 0.02 µM, partner dose 0.4 µM), the cell count in the experiment on WM115 was determined as 90.4%; in the experiment on WM1716 it was 88.7%; with WM1745, 94.6%; in the experiment with WM3526 it was 83%; in the experiment on WM3619 it was 71.9%; in the experiment with WM451Lu, 101%.
In the case of `COc1cc([C@@H]2c3cc4c(cc3[C@@H](O[C@@H]3O[C@@H]5CO[C@@H](C)O[C@H]5[C@H](O)[C@H]3O)[C@H]3COC(=O)[C@H]23)OCO4)cc(OC)c1O` [etoposide] + C=CCNC1=C2C[C@@H](C)C[C@H](OC)[C@H](O)[C@@H](C)/C=C(\C)[C@H](OC(N)=O)[C@@H](OC)/C=C\C=C(/C)C(=O)NC(=CC1=O)C2=O [Tanespimycin] (first compound 0.02 µM, partner dose 0.002 µM), the cell count with WM115 worked out at 82.9%; in the experiment on WM1716, 95.8%; in the experiment with WM1745 it was 92.5%; with WM3526, 87.4%; in the experiment with WM3619 it was 86.4%; in the experiment on WM451Lu it was 113%.
Take `Cn1cnc2c(F)c(Nc3ccc(Br)cc3Cl)c(C(=O)NOCCO)cc21` [selumetinib] + Cc1ccc(NC(=O)c2cccc(N(C)C)c2)cc1NC(=O)c1ccc(O)cc1 [ZM336372] (first compound 0.015 µM, partner dose 2 µM): the cell count with WM115 was determined as 88.4%; in the experiment on WM1716, 112%; with WM1745, 85.8%; in the experiment on WM3526 it was 85.8%; in the experiment with WM3619 it was 162%; in the experiment with WM451Lu, 113%.
For `CCN(CC)CCNC(=O)c1c(C)[nH]c(/C=C2\C(=O)Nc3ccc(F)cc32)c1C` [sunitinib] + NC(=O)Nc1cc(-c2cccc(F)c2)sc1C(=O)N[C@H]1CCCNC1 [AZD7762] (first compound 0.4 µM, partner dose 0.02 µM), the cell count in the experiment on WM115 was determined as 85.7%; in the experiment on WM1716, 111%; in the experiment with WM1745, 82.8%; with WM3526, 36.3%; with WM3619, 94%; in the experiment on WM451Lu, 87.7%.
Consider `C[C@]1(O)C[C@@H](c2nc(-c3ccc4ccc(-c5ccccc5)nc4c3)c3c(N)nccn32)C1` + Cc1nc(Nc2ncc(C(=O)Nc3c(C)cccc3Cl)s2)cc(N2CCN(CCO)CC2)n1 [dasatanib] (first compound 0.4 µM, partner dose 0.004 µM), for which the cell count came out at 89.1% in the experiment with WM115; 84% in the experiment on WM1716; 46.4% with WM1745; 81.7% in the experiment on WM3526; 84.2% in the experiment with WM3619; 88.6% with WM451Lu.
Turning to `CCN(CC)CCNC(=O)c1c(C)[nH]c(/C=C2\C(=O)Nc3ccc(F)cc32)c1C` [sunitinib] + CCCS(=O)(=O)Nc1ccc(F)c(C(=O)c2c[nH]c3ncc(Cl)cc23)c1F [PLX4720] (first compound 0.4 µM, partner dose 0.08 µM), the cell count with WM115 amounted to 97.8%; in the experiment on WM1716, 114%; with WM1745, 81.5%; in the experiment on WM3526, 64%; with WM3619, 78.9%; in the experiment with WM451Lu, 95.4%.
Take `COc1cc([C@@H]2c3cc4c(cc3[C@@H](O[C@@H]3O[C@@H]5CO[C@@H](C)O[C@H]5[C@H](O)[C@H]3O)[C@H]3COC(=O)[C@H]23)OCO4)cc(OC)c1O` [etoposide] + O=C(O)c1ccc2c(c1)nc(Nc1cccc(Cl)c1)c1ccncc12 [CX4945] (first compound 0.02 µM, partner dose 0.4 µM): the cell count with WM115 worked out at 103%; in the experiment on WM1716, 98.2%; with WM1745, 99.2%; in the experiment on WM3526, 92.2%; in the experiment with WM3619, 81.7%; with WM451Lu, 102%.
With `COc1cc([C@@H]2c3cc4c(cc3[C@@H](O[C@@H]3O[C@@H]5CO[C@@H](C)O[C@H]5[C@H](O)[C@H]3O)[C@H]3COC(=O)[C@H]23)OCO4)cc(OC)c1O` [etoposide] + CS(=O)(=O)c1ccc(C(=O)Nc2ccc(Cl)c(-c3ccccn3)c2)c(Cl)c1 [vismodegib] (first compound 0.02 µM, partner dose 1 µM), the cell count in the experiment with WM115 was 91.3%; with WM1716, 95.4%; with WM1745, 121%; in the experiment with WM3526, 86.5%; in the experiment with WM3619, 114%; in the experiment with WM451Lu it was 88.1%.
As to `C[C@]1(O)C[C@@H](c2nc(-c3ccc4ccc(-c5ccccc5)nc4c3)c3c(N)nccn32)C1` + C=C(c1ccc(C(=O)O)cc1)c1cc2c(cc1C)C(C)(C)CCC2(C)C [Bexarotene] (first compound 0.4 µM, partner dose 2 µM), the cell count was found to be 110% in the experiment with WM115; 86.4% in the experiment with WM1716; 62.7% with WM1745; 76.6% in the experiment on WM3526; 85.4% in the experiment with WM3619; 89.8% in the experiment with WM451Lu.
Consider `Cn1cnc2c(F)c(Nc3ccc(Br)cc3Cl)c(C(=O)NOCCO)cc21` [selumetinib] + CN(C)S(=O)(=O)c1ccc2c(c1)/C(=C/c1cc3c([nH]1)CCCC3)C(=O)N2 [SU6656] (first compound 0.015 µM, partner dose 0.4 µM), for which the cell count in the experiment with WM115 was determined as 75.5%; in the experiment with WM1716, 110%; with WM1745 it was 70.7%; with WM3526 it was 78.2%; in the experiment on WM3619 it was 84.2%; in the experiment on WM451Lu, 74%.
Regarding `CCN(CC)CCNC(=O)c1c(C)[nH]c(/C=C2\C(=O)Nc3ccc(F)cc32)c1C` [sunitinib] + C[C@@H](Oc1cc(-c2cnn(C3CCNCC3)c2)cnc1N)c1c(Cl)ccc(F)c1Cl [Crizotinib] (first compound 0.4 µM, partner dose 0.2 µM), the cell count in the experiment with WM115 came to 116%; with WM1716, 132%; in the experiment with WM1745, 81.7%; in the experiment with WM3526, 84.8%; with WM3619, 163%; in the experiment on WM451Lu it was 90.5%.
As to `Cn1cnc2c(F)c(Nc3ccc(Br)cc3Cl)c(C(=O)NOCCO)cc21` [selumetinib] + O=C(CCCCCCC(=O)Nc1ccccc1)NO [vorinostat] (first compound 0.015 µM, partner dose 0.08 µM), the cell count in the experiment with WM115 worked out at 108%; in the experiment on WM1716 it was 108%; with WM1745, 88.5%; with WM3526 it was 78.8%; in the experiment on WM3619, 81.8%; in the experiment on WM451Lu, 74.3%.
As to `Cn1cnc2c(F)c(Nc3ccc(Br)cc3Cl)c(C(=O)NOCCO)cc21` [selumetinib] + CO[C@@H]1[C@H](N(C)C(=O)c2ccccc2)C[C@H]2O[C@]1(C)n1c3ccccc3c3c4c(c5c6ccccc6n2c5c31)C(=O)NC4 [Midostaurin] (first compound 0.015 µM, partner dose 0.08 µM), the cell count with WM115 worked out at 86.1%; with WM1716, 88.6%; in the experiment with WM1745 it was 66.7%; with WM3526 it was 93%; in the experiment on WM3619, 97.9%; in the experiment with WM451Lu, 114%.
For `C[C@]1(O)C[C@@H](c2nc(-c3ccc4ccc(-c5ccccc5)nc4c3)c3c(N)nccn32)C1` + c1cc(-c2cnn3cc(-c4ccc(OCCN5CCCCC5)cc4)cnc23)ccn1 [Dorsomorphin] (first compound 0.4 µM, partner dose 0.4 µM), the cell count is 95.3% in the experiment on WM115; 104% in the experiment with WM1716; 78.4% in the experiment on WM1745; 88.1% in the experiment with WM3526; 82.6% in the experiment with WM3619; 62.2% with WM451Lu.
With `COc1cc([C@@H]2c3cc4c(cc3[C@@H](O[C@@H]3O[C@@H]5CO[C@@H](C)O[C@H]5[C@H](O)[C@H]3O)[C@H]3COC(=O)[C@H]23)OCO4)cc(OC)c1O` [etoposide] + Cn1c(Nc2ccc(C(F)(F)F)cc2)nc2cc(Oc3ccnc(-c4ncc(C(F)(F)F)[nH]4)c3)ccc21 [CHIR265] (first compound 0.02 µM, partner dose 0.08 µM), the cell count in the experiment with WM115 was determined as 56.3%; with WM1716 it was 71.4%; in the experiment on WM1745, 58.5%; with WM3526 it was 54.8%; in the experiment with WM3619, 73.3%; in the experiment with WM451Lu it was 84.8%.
Consider `Cn1cnc2c(F)c(Nc3ccc(Br)cc3Cl)c(C(=O)NOCCO)cc21` [selumetinib] + OCc1c[nH]c2ccccc12 [Indole-3-carbinol] (first compound 0.015 µM, partner dose 0.8 µM), for which the cell count in the experiment on WM115 came out at 87%; in the experiment with WM1716, 91.1%; in the experiment with WM1745, 86.6%; in the experiment on WM3526, 84.3%; in the experiment with WM3619, 62.7%; with WM451Lu, 109%.
In the case of `Cn1cnc2c(F)c(Nc3ccc(Br)cc3Cl)c(C(=O)NOCCO)cc21` [selumetinib] + Nc1ccn([C@@H]2O[C@H](CO)[C@@H](O)C2(F)F)c(=O)n1 [gemcitabine] (first compound 0.015 µM, partner dose 0.0004 µM), the cell count came out at 95.8% in the experiment with WM115; 118% in the experiment with WM1716; 78.6% in the experiment with WM1745; 98.5% with WM3526; 73.3% with WM3619; 95.9% in the experiment with WM451Lu.
Take `COc1cc([C@@H]2c3cc4c(cc3[C@@H](O[C@@H]3O[C@@H]5CO[C@@H](C)O[C@H]5[C@H](O)[C@H]3O)[C@H]3COC(=O)[C@H]23)OCO4)cc(OC)c1O` [etoposide] + C[C@]1(O)C[C@@H](c2nc(-c3ccc4ccc(-c5ccccc5)nc4c3)c3c(N)nccn32)C1 [OSI906] (first compound 0.02 µM, partner dose 0.4 µM): the cell count with WM115 stood at 86%; with WM1716 it was 85.6%; in the experiment on WM1745 it was 79.2%; in the experiment with WM3526, 94%; in the experiment with WM3619 it was 87.2%; in the experiment with WM451Lu it was 73.7%.
`Cn1cnc2c(F)c(Nc3ccc(Br)cc3Cl)c(C(=O)NOCCO)cc21` [selumetinib] + C[C@@H]1CCN(C(=O)CC#N)C[C@@H]1N(C)c1ncnc2[nH]ccc12 [CP690550] (first compound 0.015 µM, partner dose 1 µM): the cell count in the experiment with WM115 worked out at 85%; in the experiment with WM1716 it was 99.9%; with WM1745 it was 106%; in the experiment on WM3526 it was 77%; with WM3619 it was 87.9%; in the experiment on WM451Lu it was 96.4%.
In the case of `C[C@]1(O)C[C@@H](c2nc(-c3ccc4ccc(-c5ccccc5)nc4c3)c3c(N)nccn32)C1` + Cc1cc(Nc2cc(N3CCN(C)CC3)nc(/C=C/c3ccccc3)n2)n[nH]1 [ENMD2076] (first compound 0.4 µM, partner dose 0.04 µM), the cell count in the experiment with WM115 was 94.7%; with WM1716 it was 105%; with WM1745, 79.3%; in the experiment on WM3526 it was 89.6%; in the experiment on WM3619, 97%; with WM451Lu, 124%.
